Data published in the supplement of paper PMC4967469.
pIC50: −log10 of the molar value. Lines with a small IC50 respond at low doses; a fit beyond the top or the lowest dose is shown as a bound at that dose. AUC sums up the same curve from the lowest dose to the 256-fold higher top dose: 1 means no effect, lower means more sensitive. The top dose, if marked as inferred, comes from the curve model; the source does not state it. For some assays here: An entry number marks a drug with two screens in the source, which often give different values.

Experiments:
Experiment in all cases: Viability of human cancer cell lines after 72 h of drug (GDSC screen)
[1] = compound: CC(C)=CC[C@@H](O)C1=CC(=O)c2c(O)ccc(O)c2C1=O [Shikonin]; settings: top dose 16 µM; top dose inferred
Method: (§1)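 Human cancer cell lines in 384-well plates, medium with 10% serum, drug for 72 h over a 256-fold dose range (nine 2-fold or five 4-fold steps up to the top dose). Adherent lines were fixed and stained with the nucleic acid dye Syto60, suspension lines read with resazurin; signal relative to control wells, capped at 0 and 100%. One two-parameter sigmoid per drug and line, fitted in a mixed model over all curves with the slope shared within a line.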

[2] = compound: CCNc1cc(NC2CCC(O)CC2)nc(Nc2ccc3c(ccn3Cc3ccccc3)c2)n1 [CGP-082996 (CINK4)]; settings: top dose 5.12 µM; top dose inferred
Method: as §1

[3] = compound: CNC(=O)c1ccc(Nc2cc(Nc3ccccc3S(=O)(=O)C(C)C)c3cc[nH]c3n2)nc1 [HG-5-113-01]; settings: top dose 10 µM; top dose inferred
Method: as §1

[4] = compound: COc1cc(-c2nn([C@H]3CC[C@H](N4CCN(C(C)=O)CC4)CC3)c3ncnc(N)c23)ccc1NC(=O)c1cc2ccccc2n1C [A-770041]; settings: top dose 5.12 µM; top dose inferred
Method: as §1

[5] = compound: COc1cc(N2CCN(C)CC2)ccc1Nc1ncc2c(n1)N(C)c1ccccc1C(=O)N2C [XMD8-85]; settings: top dose 8 µM; top dose inferred
Method: as §1

[6] = compound: Cc1cc(N2CCOCC2)cc2[nH]c(-c3c(NC[C@@H](O)c4cccc(Cl)c4)cc[nH]c3=O)nc12 [BMS-536924]
Method: as §1

[7] = compound: Cc1ccc(-n2nc(C(C)(C)C)cc2NC(=O)Nc2ccc(OCCN3CCOCC3)c3ccccc23)cc1 [BIRB 0796]; settings: top dose 10 µM; top dose inferred
Method: as §1

[8] = compound: Cc1cccc(-c2[nH]c(C(C)(C)C)nc2-c2ccc3nccnc3c2)n1 [SB-525334]; settings: top dose 20 µM; top dose inferred
Method: as §1

[9] = compound: NC(=O)c1ccc(N(C(N)=O)c2c(F)cccc2F)nc1-c1ccc(F)cc1F [VX-702]; settings: top dose 2 µM; top dose inferred
Method: as §1

[10] = compound: O=C(c1cc(Cc2n[nH]c(=O)c3ccccc23)ccc1F)N1CCN(C(=O)C2CC2)CC1 [Olaparib]
Method: as §1

[11] = compound: O=C1NC(=O)c2c1c(-c1ccccc1Cl)cc1[nH]c3ccc(O)cc3c21 [Wee1 inhibitor 681640]; settings: top dose 2 µM; top dose inferred
Method: as §1

[12] = top dose 4 µM, screen: GDSC drug entry 1091, top dose inferred
[13] = top dose 5.12 µM, screen: GDSC drug entry 62
[14] = top dose 5 µM, screen: GDSC drug entry 1017, top dose inferred
[15] = top dose 10 µM, screen: GDSC drug entry 1495

| Cell Line | AUC [1] | pIC50 [1] | AUC [2] | pIC50 [2] | AUC [3] | pIC50 [3] | AUC [4] | pIC50 [4] | AUC [5] | pIC50 [5] | AUC [6, 12] | pIC50 [6, 12] | AUC [6, 13] | pIC50 [6, 13] | AUC [7] | pIC50 [7] | AUC [8] | pIC50 [8] | AUC [9] | pIC50 [9] | AUC [10, 14] | pIC50 [10, 14] | AUC [10, 15] | pIC50 [10, 15] | AUC [11] | pIC50 [11] |
| --- | --- | --- | --- | --- | --- | --- | --- | --- | --- | --- | --- | --- | --- | --- | --- | --- | --- | --- | --- | --- | --- | --- | --- | --- | --- | --- |
| NALM-6 (B-cell leukaemia, suspension) | 0.159 | 6.94 | 0.827 | 5.61 | 0.643 | 5.84 | 0.724 | 5.91 | 0.862 | 5.29 | 0.957 | < 5.40 | 0.813 | 5.65 | 0.991 | < 5.00 | 0.967 | < 4.70 | 0.977 | < 5.70 | 0.943 | < 5.30 | 0.987 | < 5.00 | 0.972 | < 5.70 |
| NAMALWA (Burkitt lymphoma, suspension) | 0.554 | 5.86 | 0.946 | < 5.29 | 0.766 | 5.50 | 0.729 | 5.90 | 0.87 | 5.26 | 0.95 | < 5.40 | 0.715 | 5.94 | 0.989 | < 5.00 | 0.796 | 5.11 | 0.987 | < 5.70 | 0.985 | < 5.30 | 0.971 | < 5.00 | 0.989 | < 5.70 |
| NB1 (neuroblastoma, semi-adherent) | 0.52 | 5.94 | 0.862 | < 5.29 | 0.489 | 6.24 | 0.965 | < 5.29 | 0.889 | < 5.10 | 0.781 | 5.74 | 0.94 | < 5.29 | 0.952 | < 5.00 | 0.661 | 5.43 | 0.98 | < 5.70 | 0.973 | < 5.30 | 0.955 | < 5.00 | 0.975 | < 5.70 |
| NB5 (neuroblastoma, adherent) | 0.579 | 5.78 | 0.986 | < 5.29 | 0.672 | 5.72 | 0.886 | < 5.29 | 0.94 | < 5.10 | 0.878 | < 5.40 | 0.698 | 5.93 | 0.986 | < 5.00 | 0.92 | < 4.70 | 0.971 | < 5.70 | 0.953 | < 5.30 | 0.905 | < 5.00 | 0.957 | < 5.70 |
| NB6 (neuroblastoma, adherent) | 0.381 | 6.36 | 0.984 | < 5.29 | 0.871 | < 5.00 | 0.956 | < 5.29 | 0.978 | < 5.10 | 0.96 | < 5.40 | 0.983 | < 5.29 | 0.977 | < 5.00 | 0.762 | 5.06 | 0.978 | < 5.70 | 0.982 | < 5.30 |  |  | 0.908 | < 5.70 |
| NB10 (neuroblastoma, adherent) | 0.591 | 5.75 | 0.988 | < 5.29 | 0.696 | 5.66 | 0.988 | < 5.29 | 0.959 | < 5.10 | 0.765 | 5.84 | 0.96 | < 5.29 | 0.983 | < 5.00 | 0.805 | 5.01 | 0.988 | < 5.70 | 0.926 | < 5.30 | 0.8 | 5.33 | 0.97 | < 5.70 |
| NB13 (neuroblastoma, adherent) | 0.297 | 6.54 | 0.98 | < 5.29 | 0.711 | 5.65 | 0.934 | < 5.29 | 0.969 | < 5.10 | 0.878 | 5.49 | 0.845 | 5.51 | 0.989 | < 5.00 | 0.837 | 4.95 | 0.988 | < 5.70 | 0.99 | < 5.30 | 0.984 | < 5.00 | 0.822 | 6.00 |
| NB14 (neuroblastoma, adherent) | 0.061 | > 7.20 | 0.936 | < 5.29 | 0.487 | 6.24 | 0.989 | < 5.29 | 0.989 | < 5.10 | 0.806 | 5.72 | 0.988 | < 5.29 | 0.889 | < 5.00 | 0.708 | 5.33 | 0.989 | < 5.70 | 0.932 | < 5.30 | 0.943 | < 5.00 | 0.959 | < 5.70 |
| NB69 (neuroblastoma, adherent) | 0.26 | 6.64 | 0.989 | < 5.29 | 0.507 | 6.19 | 0.823 | 5.59 | 0.824 | 5.39 |  |  | 0.502 | 6.49 | 0.977 | < 5.00 | 0.922 | < 4.70 | 0.976 | < 5.70 | 0.913 | < 5.30 |  |  | 0.99 | < 5.70 |
| NB(TU)1-10 (neuroblastoma, adherent) | 0.345 | 6.40 | 0.992 | < 5.29 | 0.989 | < 5.00 | 0.945 | < 5.29 | 0.891 | 5.15 | 0.979 | < 5.40 | 0.54 | 6.39 | 0.993 | < 5.00 | 0.912 | < 4.70 | 0.94 | < 5.70 | 0.948 | < 5.30 | 0.993 | < 5.00 | 0.989 | < 5.70 |
